# The other results are listed elsewhere or left out.
# B1: PhoQ; a variant is named by its letters at X, in order, P23837 (parent)
# chain: MKKLLRLFFPLSLRVRFLLATAAVVLVLSLAYGMVALIGYSVSFDKTTFRLLRGESNLFYTLAKWENNKLHVELPENIDKQSPTMTLIYDENGQLLWAQRDVPWLMKMIQPDWLKSNGFHEIEADVNDTSLLLSGDHSIQQQLQEVREDDDDAEMTHSVAVNVYPATSRMPKLTIVVVDTIPVELKSSYMVWSWFIYVLSANLLLVIPLLWVAAWWSLRPIEALAKEVRELEEHNRELLNPATTRELTSLVRNLNRLLKSERERYDKYRTTLTDLTHSLKTPLXXLQXXLRSLRSEKMSVSDAEPVMLEQISRISQQIGYYLHRASMRGGTLLSRELHPVAPLLDNLTSALNKVYQRKGVNISLDISPEISFVGEQNDFVEVMGNVLDNACKYCLEFVEISARQTDEHLYIVVEDDGPGIPLSKREVIFDRGQRVDTLRPGQGVGLAVAREITEQYEGKIVAGESMLGGARMEVIFGRQHSAPKDE
# Variants of: B1
# Experiment: enrichment ratio after two sorts for PhoP signalling (ratio (wild type AVST 3.29)); higher = more functional
# Conditions: with PhoP (E. coli)
row,Variant,enrichment ratio
1,PQSD,≤ 0.25
2,RTDV,≤ 0.25
3,TKID,≤ 0.25
4,RLMC,≤ 0.25
5,STWP,≤ 0.25
6,HYAS,≤ 0.25
7,RQYH,≤ 0.25
8,PIKY,≤ 0.25
9,LCRE,≤ 0.25
10,LEAK,≤ 0.25
11,DYGR,≤ 0.25
12,HPSI,≤ 0.25
13,YGTN,≤ 0.25
14,VPNH,≤ 0.25
15,CMLF,5.01
16,ERIR,≤ 0.25
17,YCNR,≤ 0.25
18,ACSV,8.72
19,QGWN,16.6
20,EFKH,≤ 0.25
21,TPTV,≤ 0.25
22,ALPT,≤ 0.25
23,METH,8.69
24,VFWT,≤ 0.25

row,Variant,enrichment ratio
1,ADSC,≤ 0.25
2,FCHA,≤ 0.25
3,KANN,≤ 0.25
4,PMQE,≤ 0.25
5,NDLK,≤ 0.25
6,GCNN,≤ 0.25
7,SVWR,≤ 0.25
8,KMVV,≤ 0.25
9,IEDS,≤ 0.25
10,RTYY,≤ 0.25
11,DQSS,≤ 0.25
12,MEEV,≤ 0.25
13,KRVA,≤ 0.25
14,FEKM,≤ 0.25
15,PQCG,≤ 0.25
16,CNFT,≤ 0.25
17,NTIS,≤ 0.25
18,LKEK,≤ 0.25
19,QLSE,≤ 0.25
20,YGRL,≤ 0.25
21,RRGT,≤ 0.25
22,TKGP,≤ 0.25
23,GWFR,≤ 0.25
24,YRWR,≤ 0.25

row,Variant,enrichment ratio
1,FSEI,≤ 0.25
2,CFVG,≤ 0.25
3,KFRA,≤ 0.25
4,IAHS,≤ 0.25
5,AHLH,≤ 0.25
6,NFKH,≤ 0.25
7,FRMI,≤ 0.25
8,FIFL,≤ 0.25
9,RVLP,≤ 0.25
10,PMQH,≤ 0.25
11,IGEN,≤ 0.25
12,ARTR,≤ 0.25
13,HHFC,≤ 0.25
14,VGFP,≤ 0.25
15,VIYP,≤ 0.25
16,QFVE,≤ 0.25
17,LYAF,≤ 0.25
18,RLQS,≤ 0.25
19,MSII,7.57
20,DAVC,≤ 0.25
21,DRES,≤ 0.25
22,SGEW,≤ 0.25
23,PFFG,≤ 0.25
24,VEGS,≤ 0.25

row,Variant,enrichment ratio
1,HYKF,≤ 0.25
2,NYYG,≤ 0.25
3,RPTS,≤ 0.25
4,ILFL,≤ 0.25
5,PRTD,≤ 0.25
6,TTVL,0.943
7,YQYS,≤ 0.25
8,TNCT,1.63
9,HQAL,≤ 0.25
10,TAYQ,10.6
11,HHQM,≤ 0.25
12,MEEK,≤ 0.25
13,TFAL,6.11
14,HPAT,≤ 0.25
15,WAPI,≤ 0.25
16,GDFL,≤ 0.25
17,QFSL,≤ 0.25
18,NFLD,≤ 0.25
19,GNDW,≤ 0.25
20,WPYL,0.766
21,DATQ,≤ 0.25
22,WQQL,≤ 0.25
23,IHME,≤ 0.25
24,KNFF,≤ 0.25

row,Variant,enrichment ratio
1,RNAI,≤ 0.25
2,LGKY,≤ 0.25
3,LEYV,3.72
4,DSSA,≤ 0.25
5,MEMK,≤ 0.25
6,IICM,≤ 0.25
7,GETL,6.34
8,DNNM,≤ 0.25
9,LRQG,≤ 0.25
10,QESD,≤ 0.25
11,SIPA,0.817
12,STYE,≤ 0.25
13,DIFW,≤ 0.25
14,WGDY,≤ 0.25
15,GMNK,≤ 0.25
16,SECH,8.6
17,FVTV,≤ 0.25
18,WGSQ,≤ 0.25
19,EGMR,≤ 0.25
20,PKWG,≤ 0.25
21,DHYF,≤ 0.25
22,YNRI,≤ 0.25
23,AHRF,≤ 0.25
24,YRPT,≤ 0.25

row,Variant,enrichment ratio
1,MWIY,≤ 0.25
2,ERYI,≤ 0.25
3,TTPP,≤ 0.25
4,VKRI,≤ 0.25
5,ESVP,≤ 0.25
6,NHHC,≤ 0.25
7,QGWL,2.29
8,QYMF,≤ 0.25
9,ENLD,≤ 0.25
10,VYKV,≤ 0.25
11,PDIW,≤ 0.25
12,TNWD,≤ 0.25
13,VRWI,≤ 0.25
14,AHFL,≤ 0.25
15,RISY,≤ 0.25
16,MDCI,≤ 0.25
17,FGWI,≤ 0.25
18,HIII,6.08
19,FRPR,≤ 0.25
20,HNIL,≤ 0.25
21,IKMQ,≤ 0.25
22,NREY,≤ 0.25
23,LCKH,≤ 0.25
24,RYLW,≤ 0.25

row,Variant,enrichment ratio
1,QLFE,≤ 0.25
2,GEIY,23
3,SSIM,18.4
4,LHYC,≤ 0.25
5,MMMR,≤ 0.25
6,TPFT,≤ 0.25
7,WTPQ,≤ 0.25
8,WVFV,≤ 0.25
9,KVWA,≤ 0.25
10,DIAA,≤ 0.25
11,PCDT,≤ 0.25
12,YKAV,≤ 0.25
13,EFVS,≤ 0.25
14,ILKL,≤ 0.25
15,NDTR,≤ 0.25
16,ISGG,≤ 0.25
17,PDAC,≤ 0.25
18,KGNL,≤ 0.25
19,RVCP,≤ 0.25
20,SFFN,≤ 0.25
21,QLVC,≤ 0.25
22,LHIV,≤ 0.25
23,FSMS,1.68
24,LLHQ,≤ 0.25

row,Variant,enrichment ratio
1,SMCA,15.3
2,HDKA,≤ 0.25
3,RCDR,≤ 0.25
4,PGGK,≤ 0.25
5,DHKN,≤ 0.25
6,ADEL,≤ 0.25
7,AYDN,≤ 0.25
8,NVFA,≤ 0.25
9,WLLK,0.74
10,SCKH,≤ 0.25
11,PDIM,≤ 0.25
12,TSQG,9.59
13,SRAD,≤ 0.25
14,DDEM,≤ 0.25
15,LVDF,≤ 0.25
16,VHQW,≤ 0.25
17,DCSF,≤ 0.25
18,MSQQ,≤ 0.25
19,NHMN,≤ 0.25
20,FSPN,≤ 0.25
21,VTHI,≤ 0.25
22,TLIV,≤ 0.25
23,SQFD,≤ 0.25
24,AGCD,≤ 0.25

row,Variant,enrichment ratio
1,VHWH,≤ 0.25
2,VNPE,≤ 0.25
3,YVIP,≤ 0.25
4,ESGD,≤ 0.25
5,MEIR,≤ 0.25
6,SMHM,≤ 0.25
7,YEPT,≤ 0.25
8,LSWH,0.301
9,WRGH,≤ 0.25
10,WNHI,≤ 0.25
11,TCNI,2.07
12,NCSS,≤ 0.25
13,DQYW,≤ 0.25
14,VCML,10
15,EGGQ,≤ 0.25
16,VWIQ,≤ 0.25
17,FEDC,≤ 0.25
18,SMHC,≤ 0.25
19,FFKC,≤ 0.25
20,LGEG,≤ 0.25
21,LLYQ,≤ 0.25
22,QKWS,≤ 0.25
23,IEAL,≤ 0.25
24,GFYQ,≤ 0.25

row,Variant,enrichment ratio
1,GFSS,≤ 0.25
2,VSMF,≤ 0.25
3,VPAD,≤ 0.25
4,VRMS,≤ 0.25
5,GACW,≤ 0.25
6,TYPD,≤ 0.25
7,DNTA,≤ 0.25
8,TEGR,≤ 0.25
9,NSTK,≤ 0.25
10,TNQP,≤ 0.25
11,DGVD,≤ 0.25
12,SQSA,3.01
13,LQNF,≤ 0.25
14,KAWN,≤ 0.25
15,RCEH,≤ 0.25
16,QPDT,≤ 0.25
17,LDEW,≤ 0.25
18,PLAH,≤ 0.25
19,SIVI,2.79
20,ASYI,≤ 0.25
21,YSRL,≤ 0.25
22,VING,≤ 0.25
23,WECF,≤ 0.25
24,EYHR,≤ 0.25

row,Variant,enrichment ratio
1,KVKW,≤ 0.25
2,GWMP,≤ 0.25
3,KKTE,≤ 0.25
4,PFGA,≤ 0.25
5,IQWV,≤ 0.25
6,SWVE,≤ 0.25
7,AHCR,≤ 0.25
8,MYGR,≤ 0.25
9,SFNL,≤ 0.25
10,LTMF,0.436
11,ISPC,≤ 0.25
12,MFWY,≤ 0.25
13,GWYP,≤ 0.25
14,SMHD,≤ 0.25
15,TMRP,≤ 0.25
16,PCQD,≤ 0.25
17,RPRS,≤ 0.25
18,QVCW,≤ 0.25
19,VPFC,≤ 0.25
20,REVQ,≤ 0.25
21,VTTF,≤ 0.25
22,NEEG,≤ 0.25
23,RYCL,≤ 0.25
24,IAYL,≤ 0.25

row,Variant,enrichment ratio
1,WCLT,≤ 0.25
2,GGTF,≤ 0.25
3,SKAD,≤ 0.25
4,PLIP,≤ 0.25
5,HHIS,≤ 0.25
6,WWMR,≤ 0.25
7,IHCQ,≤ 0.25
8,MDRC,≤ 0.25
9,WQNK,≤ 0.25
10,GQMS,≤ 0.25
11,LCFI,≤ 0.25
12,TPMR,≤ 0.25
13,AIPH,≤ 0.25
14,PARV,≤ 0.25
15,WINF,≤ 0.25
16,ISKI,≤ 0.25
17,FGFL,0.333
18,GRYS,≤ 0.25
19,FSES,≤ 0.25
20,HTFF,≤ 0.25
21,STRI,≤ 0.25
22,PYTQ,≤ 0.25
23,GGFF,≤ 0.25
24,MSFK,≤ 0.25

row,Variant,enrichment ratio
1,VEGW,≤ 0.25
2,ITCC,≤ 0.25
3,IQAD,≤ 0.25
4,TYSK,≤ 0.25
5,MYMP,≤ 0.25
6,GCLI,7.28
7,FVRS,≤ 0.25
8,HKYF,≤ 0.25
9,TCDC,≤ 0.25
10,CIFF,≤ 0.25
11,YKIM,≤ 0.25
12,MQNR,≤ 0.25
13,KIDV,≤ 0.25
14,LRIR,≤ 0.25
15,PGEI,≤ 0.25
16,KADA,≤ 0.25
17,HRTC,≤ 0.25
18,LMQD,≤ 0.25

# Reference: a collection of fitness landscapes (doi:10.1126/science.1257360)
